Experimental data as given in PubChem BioAssay AID485344 (National Center for Advancing Translational Sciences (NCATS), 2010).
Where “and” joins values, the source holds several entries; their conditions need not be identical. Equal values may be shown once. Screen size: about 340,000 compounds; about 6,900 (2%) were called active. No stated cut-off is given here; in the data, active means inhibition above about 30%; inactive means below that, where a call was filed. Only a part is listed here, and it is no random draw. The source gives no active or inactive call for entries shown without one.

These compounds were tested against D(2) dopamine receptor (Homo sapiens) (UniProt P14416) (assay: HTS Assay for Allosteric Antagonists of the Human D2 Dopamine Receptor: Primary Screen for Antagonists). Conditions: HEK293 TREx D2 cells, calcium flux, dopamine EC80; at 10 µM; stronger effect = higher value.
Chain of UniProt P14416 (P14416 whole entry, looked up): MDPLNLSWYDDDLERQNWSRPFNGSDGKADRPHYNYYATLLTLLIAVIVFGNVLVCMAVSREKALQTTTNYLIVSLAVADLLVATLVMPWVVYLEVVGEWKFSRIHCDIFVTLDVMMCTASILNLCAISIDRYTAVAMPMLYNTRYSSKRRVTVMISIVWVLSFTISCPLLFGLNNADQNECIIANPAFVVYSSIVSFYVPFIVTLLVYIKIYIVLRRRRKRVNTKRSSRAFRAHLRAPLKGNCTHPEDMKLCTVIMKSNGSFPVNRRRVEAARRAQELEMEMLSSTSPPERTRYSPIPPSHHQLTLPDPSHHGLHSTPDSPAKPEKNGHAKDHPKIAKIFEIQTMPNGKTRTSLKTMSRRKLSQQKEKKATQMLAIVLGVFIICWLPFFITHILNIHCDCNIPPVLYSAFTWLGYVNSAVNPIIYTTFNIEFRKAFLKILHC
Summary of the method: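 Calcium mobilization kinetics were recorded at 1 s intervals in tetracycline-induced HEK293 T-REx D2 cells, first for 180 s after compound addition and then 180 s after EC80 dopamine.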
Further: 0% is about no effect.

Structure (SMILES) | inhibition
Cc1ccc(C)c(N2CCN(S(=O)(=O)c3csc(C(N)=O)c3)CC2)c1 | -9.43%
CCn1nnc2cc(C(=O)Nc3cccc(C)c3C)ccc21 | 0.0507%
COc1ccc(NC(=O)C2CCC(CNS(=O)(=O)c3cccs3)CC2)cc1OC (configuration not stated) | 28%
CC1CCCN(Cc2c(O)ccc3c4c(c(=O)oc23)CCCC4)C1 (configuration not stated) | active: 36%
Cc1cccc(N2CCN(CC(O)COc3ccccc3Cl)CC2)c1 (configuration not stated) | active: 71.1%
Clc1ccccc1-c1nnc(-c2ccccc2CNc2ccccc2)o1 | -17.1%
COC(=O)c1cc2sc(C)cc2n1CC(=O)Nc1ccc(C)cc1Cl | 0.268%
CC(=O)c1cc(-c2ccccc2)n(CC(=O)NCc2ccccc2C)c1C | 27.8%
COc1ccc(-c2noc(CSc3nnc(-c4ccccc4)n3C)n2)cc1 | 2.48%
CCCOC(=O)c1ccc(Nc2c(C(=O)OCC)cnc3c(C)cc(Cl)cc23)cc1 | 9.41%
Cc1oc2c(cc(NS(=O)(=O)c3ccc(F)cc3)c3ccccc32)c1C(=O)OCc1ccccc1 | -2.38%
COc1ccc(C)cc1NC(=O)CN1CCN(S(=O)(=O)c2ccc(Br)cc2)CC1 | 8.05% and active: 33.5%
Cc1cccc(C)c1NC(=O)CN1C(=O)c2ccccc2Sc2ncccc21 | 13.5%
CCc1cccc(N2C(=O)N(Cc3c(F)cccc3Cl)c3ccccc3S2(=O)=O)c1 | -11.8%
CCn1cc(C(=O)Nc2ccc(C(C)C)cc2)c2cc(OC)c(OC)cc2c1=O | -14.3%
Cc1ccc2cc3cc(C(=O)N(C)c4ccccc4C)oc3nc2c1 | 16.6%
CCOC(=O)c1ccc(NC(=O)c2c(NCc3cc(OC)ccc3OC)sc3c2CCC3)cc1 | -1.37%
CCc1cnc2c(c1SCCC(C)C)c(=O)n(C)c(=O)n2C | -2.25%
CC(C)CCn1c(=O)c2sccc2n2c(CCCC(=O)NC(C)c3ccccc3)nnc12 (configuration not stated) | 3.25%
CC(=O)c1cccc(NC(=O)CSc2nc3c(=O)n(C)c(=O)n(C)c3n2C)c1 | -18.2%
Cc1cccc(OCC(=O)Nc2ccccc2C(=O)OCc2cc(=O)n3nc(C4CC4)sc3n2)c1 | 3.92%

Structure (SMILES) | inhibition
Cc1ccc(CCNC(=O)c2cc3c(=O)n(C)c4ccccc4c3n2C)cc1 | -9.03%
Cc1cccc(N2CCN(c3nc4ccccc4c4nc(-c5cccnc5)nn34)CC2)c1C | 14.2%
CC(C)CCNC(=O)c1ccc2c(c1)nc1n2CCCCC1 | -4.01%
CCCC(=O)Nc1ccc2nc(SCc3ccc(C)cc3)sc2c1 | -5.64%
OC(CNCC1COc2ccccc2O1)COc1ccc(Cl)cc1 (configuration not stated) | active: 104%
Nc1ccc2oc(Cc3ccc(Cl)cc3)nc2c1 | -13.1%
COc1ccc(C)cc1NC(=O)Cc1c(C(=O)O)c(C)cn1C | 4.05%
COCCNc1ccc(-c2nc(-c3ccccn3)no2)cc1[N+](=O)[O-] | 17.7%
CCC1(CC)NC(=O)N(CC(=O)OCC(=O)Nc2ccc(OC(F)(F)F)cc2)C1=O | active: 61.4%
CC(=O)Nc1ccc(S(=O)(=O)N(Cc2ccccc2)Cc2ccccc2)cc1 | -2.38%
C=Cc1ccc(Cn2c(=O)n(CC3CCC(C(=O)NC(C)C)CC3)c(=O)c3sccc32)cc1 (configuration not stated) | 1.77%
O=C(NCc1ccco1)c1ccc2c(c1)N(Cc1ccccc1F)C(=O)c1ccccc1S2(=O)=O | -19.7%
CCn1c(=O)cc(SCC(=O)NCc2ccc(C)cc2)c2ccccc21 | 10.1%
CCCCNC(=O)c1ccc2c(c1)NC(=O)C(CS(=O)(=O)Cc1ccc(F)cc1Cl)N2 (configuration not stated) | -0.619%
COc1cccc(NC(=O)CCN2CCN(CCO)CC2)c1 | -3.29%
COc1ccc(N(C)C(=O)c2cc3c(s2)-c2ccccc2OC3)cc1 | 1.13%
CCCCNc1nc2c(c(=O)n(Cc3ccccc3)c(=O)n2C)n1C | 2.08%
Cc1ccc(Cl)cc1N1CCN(C(=O)C2CCCN(Cc3nc(-c4cccc(Cl)c4)oc3C)C2)CC1 (configuration not stated) | 11.5%
Cc1ccc(NC(=O)C2CCCN(S(=O)(=O)c3ccc4c(c3)CCCC(=O)N4)C2)cc1Cl (configuration not stated) | 8.56%
Cc1ccc(NC(=O)Cn2c(=O)ccc3cc(S(=O)(=O)N4CCCC4)ccc32)cc1N(C)C | 1.5%
Cc1cc(C(=O)Nc2cccc(C)c2C)c2c(C)nn(-c3cccc(F)c3)c2n1 | 0.21%

Structure (SMILES) | inhibition
O=C(NCc1ccc(Cl)cc1)c1ccc2c(c1)N(Cc1ccccc1F)C(=O)c1ccccc1S2=O (configuration not stated) | -24.8%
CSc1ccc(CN2CCCC(CO)(Cc3ccccc3)C2)cc1 (configuration not stated) | active: 51%
CCC(C(=O)NCCc1ccc(Cl)cc1)n1ccc2cc(S(=O)(=O)N3CCCCC3)ccc21 (configuration not stated) | 0.476%
COc1ccc(CCNC(=O)C(=O)NCC(c2cccnc2)N2CCN(c3ccccc3)CC2)cc1 (configuration not stated) | 10.9%
CN(C)CCCNC(=S)/N=c1\sccn1Cc1ccccc1Cl | active: 90.4%
CCOc1ccc(NC(=O)CN(C)S(=O)(=O)c2ccc3[nH]c4c(c3c2)CCCC4)cc1 | -8.88%
COc1ccc(C(=O)N2CCN(c3nc4c(C)c(Cl)ccc4s3)CC2)c(OC)c1 | 7.5%
Cc1ccc(NC(=O)COc2cccc3c2OC(C)(C)C3)c(O)c1 | active: 30.2%
Cc1cc(-c2ccc(S(=O)(=O)Nc3cccc(Cl)c3C)cc2)on1 | 6.11%
Cc1ccc(C(C)C)c(OCC(=O)Nc2nc3c(s2)CCCC3)c1 | -4.35%
CCCCCOC(=O)c1ccc(Nc2nc(C(=O)OCC)nc3ccccc23)cc1 | 4.61%
COCCNC(=O)CN(c1cc(Cl)ccc1OC)S(=O)(=O)c1ccc(C)c([N+](=O)[O-])c1 | active: 58.8%
COc1ccc(S(=O)(=O)Nc2cc(-c3cn4cccc(C)c4n3)ccc2C)cc1C | 4.66%
Cc1ccc2nc(-c3c[nH]c4ccccc34)c(Nc3ccccc3)n2c1 | -8.97%
O=C(NCCc1ccc(F)cc1)C(=O)NCC(c1ccc2c(c1)OCO2)N1CCOCC1 (configuration not stated) | -14.4%
Cc1coc2c1c(C)cc1oc(=O)c(CC(=O)NCc3ccc(Cl)cc3)c(C)c12 | 9.88%
CCOc1ccccc1N1CCN(Cc2cccc(OC)c2OC)CC1 | active: 87.4%
COc1ccccc1N1CCN(S(=O)(=O)c2cc(-c3cc(C)no3)ccc2C)CC1 | 1.52%
CCc1ccc2oc(C(=O)NCCc3ccc(OC)c(OC)c3)cc(=O)c2c1 | 6.75%
O=C(c1ccc2c(c1)OCCO2)N(Cc1cccnc1)c1nc2ccc(Cl)cc2s1 | -7.11%
